This is one part of the list. At the low end of the ranking, values are background and their order means little. The protein was read in a cell extract, so binding may be indirect.
What follows are sequences tested against T1, HNF4alpha2 (COS-7 nuclear extract) (UniProt P41235) (assay: protein-binding microarray). Conditions: COS-7 nuclear extract on double-stranded Agilent 4x180k PBM; binding buffer, salt, pH and temperature not given; high values mean tight binding; double strand, one strand shown; sequences stand for … in …GCCTAGGGAGATTAGAGTATCGGTCGA.
T1 sequence: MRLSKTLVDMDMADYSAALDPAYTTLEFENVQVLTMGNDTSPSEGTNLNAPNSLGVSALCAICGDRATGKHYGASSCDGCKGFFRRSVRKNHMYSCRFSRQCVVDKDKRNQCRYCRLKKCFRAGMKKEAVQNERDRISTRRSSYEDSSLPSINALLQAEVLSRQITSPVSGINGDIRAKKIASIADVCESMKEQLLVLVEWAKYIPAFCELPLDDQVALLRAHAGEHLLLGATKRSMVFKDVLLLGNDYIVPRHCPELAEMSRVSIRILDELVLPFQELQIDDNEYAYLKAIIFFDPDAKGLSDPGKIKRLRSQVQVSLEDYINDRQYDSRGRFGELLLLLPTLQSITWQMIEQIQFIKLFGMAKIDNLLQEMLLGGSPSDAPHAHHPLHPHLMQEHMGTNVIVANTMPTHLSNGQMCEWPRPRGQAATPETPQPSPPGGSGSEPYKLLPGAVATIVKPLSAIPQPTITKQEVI

| Sequence | binding signal (log2 normalized intensity) |
| --- | --- |
| TGCACTTATCTTAATACTTTGGAACTCAGT | 1.85 |
| AGGTCACACTGATACAGCATGGCCCAGGGA | -1.05 |
| TCTGATTAGAGGCTCAGGTAAAGGCATGCT | -1.12 |
| TACATTCTTAGAAGATAAAGTGTCTCCCTC | 0.941 |
| CCTCCTCCTGGGGGCTTTTGTTTAGGAAGA | -0.247 |
| GGTAAACACTGAGCTTTCATCTAAGATCCT | -1.19 |
| GTCCAGTGGTGTCTTACCGGGATTTTGTTG | 1.64 |
| GGTGTGCCTCCTCCATCTCCTCCACCAGCT | -1.04 |
| CCTGCACACCTGCCTTTGATCAGGGACCTT | 1.4 |
| GTCTATCTTAGCCATGTTCTCTAGAAACAG | -0.621 |
| TCAGGTCCACCAAGGTGGTGAAGATGTCCT | 0.988 |
| TTTTTGTGCCTCTTTGGTGAATTTTATGTC | 1.78 |
| TCCAGGGATGTCTTTTTCTGACCCATGGGT | 2.32 |
| AGAAGACTTTGGGGGTAGGTGGAGTGAGGG | -0.8 |
| CGAAAAAGGAAATATCTTCCCATAAAACCT | -1.12 |
| CAAAGGTCATTGGTATTGATAGCGCTTACT | 2.77 |
| CCAGCAAAGAGGGTCAAAGCCCAGGAGAGC | -1.06 |
| AAGAGGAATGCTTTGAGCCAGAATCTGTCA | -1.05 |
| TAAGGAAGGAAGGTGCTTATCAGAGCAAGA | -1.13 |
| CTGAGCCTCAGAACCATTTGTGAGGATGGG | -0.528 |
| CTTTCATGAATAAATGACATAGTGACATTT | 1.65 |
| TGAACAGAATAGAGGCCTTTGTGCTGACTA | -0.751 |
| TTAAAAAAAAAAAAAACTATCAAACTAGTG | -1.27 |
| CAGAGCCGCACCCAGCTTTCATCTCGGCTG | -1.12 |
| TAAGTTTAAGTCCAGAAAAGACCAAAAAGG | 0.39 |

| Sequence | binding signal (log2 normalized intensity) |
| --- | --- |
| ATTGTCAATACCCTGTTATTAGTCCAAGAG | 1.46 |
| CGTCCGTCACCCCTTTCTTTGATTAGGAAA | 1.54 |
| TCTTTCTATATTTGTAGGCAGCTAGGCAGG | 1.58 |
| CTAAGTGGCTCGACAACGATTTGGGAAATG | -0.828 |
| GTTGAATGATGGCGAGTGTGCAATTAGAGC | 0.767 |
| TTGTGTTTGTCTTAGGGGGTCTGGTTTCTA | 1.58 |
| GAGCAGTCTTGAGCGCAAATGATCAAAGGT | 0.645 |
| CCCCTTCTGTTTCCAGAAATCTGACCTCTG | 4.34 |
| AGCTGGAGGGGGACTGGAAGGGAGAGATAA | -1.19 |
| GTTGCATGCAACCTTTGTCCTCATTGAGCC | 4.96 |
| CCAGAAATCAACCTTTGATCGTTTGCATGC | 4.7 |
| TGCTCTCTCCAGGGGAGGGTGACCAGATTA | 0.281 |
| GTCCAAAGGCAGTCTGGAAGTTGAATTCCT | -0.0664 |
| GGGAGCAGTGGGGACGCCTTCCCCTGCCAC | -1.18 |
| GCTGGCCTGTCTCCTGGCCTATTGTTCTTC | 1.45 |
| ATTATTAATTTACTGAAAAGTCTACCTTTG | 0.892 |
| CATTTGGGACAAAGTTCATCTGGGCTTTAG | 2.88 |
| GGATTCCCAGATGGAGTGCTCTGAACCGTG | 0.22 |
| TTTCTGGTTCTCCAGCTAGCAAACAGCATA | -0.713 |
| GCGACTTTAGGGGCCAAGGGAAAACTTCCC | -1.19 |
| TGACCTTTGTCCTGGCACAACTGGATGGTG | 5 |
| TCCAATTAGGAGATCAGCCCGTGTCTGGGC | -0.819 |
| CCTAGGTGCTGAAGATGCAACAGTGACCCA | 2.44 |
| ATAGCGTCTCCTGGCCTCTGTGAAGTGGAG | -1.05 |
| CAGGCCTAACCCCTAACCCAGTGAATTCCT | 2.7 |

| Sequence | binding signal (log2 normalized intensity) |
| --- | --- |
| CTTAGGGTCAATGGGACATTGCATTCCACC | 0.845 |
| TGTCGTTTTCCCGGTTTGTTCCATGCCACA | 1.42 |
| CTGGATGTTTTGATGAACTTTCAAGATGAA | 1.1 |
| CTGTGTCATCTGAACTCTGACCAACGCCTC | 2.73 |
| CTAGCTACTAGCCATTTCGGCACCTTCTAC | -1.08 |
| CAGCAGACACGGGCAGGTGAGAGGGCTCTG | -1.02 |
| TCAAGGACCTGCTCTGGGGCTACCTCAGGG | -1.17 |
| ACCATGGATGCACTCCATTTACAGACCAAT | -1.1 |
| ATGTAAGGCACTTTATCTAGATAAGTTTAT | -1.16 |
| CATGGACAGCACTTAGGGTTCAAAGGTTGT | 6.18 |
| TCAAGAAGGGCAGTTGACAGAGGACCAAGG | -1.04 |
| GGTTCAGCTCCATCTGAACTCTTCATGGAC | 1.29 |
| TTTACCGAAATGTGGGTGAGGCTGTGATGT | 1.89 |
| CCTGTCACTCAATGCAGCAGCATTGGACCC | 5.34 |
| GCAGCTCCAATTAGGAGATCAGCCCGTGTC | -1.24 |
| TGTTCATACTGCAGCTCTGCGTCTTACTAA | -0.643 |
| GCCGTGCATGCTTGGACTCTGAAGGAATGT | 1.82 |
| TCAGATAGCTTTAGCCGGACTTTGTCCTTT | 7.78 |
| TAATTACAGAGCAAGTAGAGCTGCTTACAT | -1.07 |
| AGGAGTTTGTTCACCCACCAGAGGGAACGC | -1.26 |
| TGTTAGAGGGTGGTGGGTGAAGGATGGAAT | 0.649 |
| GTGGCTAGGACCTTTGAACCAGAGAAGATT | 3.44 |
| AGTATCTTAGCCAAAGAGAAGCCTAAGCAG | -1.08 |
| GGTTCACCGCTCACTGCTCCAGCCACTCAT | -0.809 |
| TTTCTGTATAAGACAACCTTTGTTCACAGT | 3.2 |

| Sequence | binding signal (log2 normalized intensity) |
| --- | --- |
| TGAGCTCTGATGGCGTATGCAGCAGGGCAG | -1.03 |
| TAGAGCTGTCCAGCAGACAATGGGAGACAT | -1.07 |
| ACTCACACACCCCAAAAGGTCAATCTGGAT | 3.48 |
| AAAAGCCAAGGCATCTGGGGGCTTGTCAGA | -1.05 |
| GATCAAAGAATTCCTAATAATACTGACTGA | -1.25 |
| GGCAGTAAGATAAGGAGGTAGAGTCTAAGG | -1.24 |
| GCAACCACAGCCTCTGCATTTGCTCCCTGA | -1.14 |
| CTGGGCAGGCGCCGACTGCCAGGAGGGGAC | -1.08 |
| TTCATCCTCCCATACAGGATCGGTCACATT | 2.07 |
| ATCTTATCGCCTAGTACTCCTGCCCCTGTG | 2.08 |
| TAGGGCCCCCTGTGATTACTTCCACTCTTG | 0.57 |
| AGTAGGTTTACTAAAGGAAGGGAGGTGAGT | 0.43 |
| AATAGGCCCTCCCAGCCTATTAACCCCAAA | 5.15 |
| TTCAGCAAATATTGAATGTGTTACACCTGT | 1.53 |
| ACTATCAGTGAAGAGCAAACAATCAGTGAA | -1.04 |
| CATATCTAGGATCACGCCATGAGTTGGGGA | -1.1 |
| AAATCCCCGCCTTTGACACAGGCGACCTTC | 3.94 |
| TCCGTGGTAACACACATTAGCTTCCCGGCT | -1.18 |
| CACGGTAGCATGCTCTCTTGTCAAGACCGA | -1.12 |
| CAGTTATCAGACAGAGGAATTCAGCAGGAT | -0.611 |
| CATTTGAACCCAACCGTCCAGAGTCCACGT | 3.93 |
| TGACTAGATTTCTGTCTGTTTTCCCCTTCC | 2.75 |
| CCATGGTAAGAACTACAGTTGACCTTTGAA | 7.38 |
| CAACTGACATCTGGAAATGTTTGTAGGGAC | 0.308 |
| GGCTGTGTCGGTATAAGTTCTACATTCCCA | -0.443 |

| Sequence | binding signal (log2 normalized intensity) |
| --- | --- |
| CTCCAGGGCACTGCCCTTTGGAACCTGCCC | 5.54 |
| CTCCACTACATTAGCAGCGCCACCAACCAT | 4.07 |
| GGAGATAACCCATCTGGGGAAAGTGCAAGG | -0.913 |
| AGGGAGCAGAGTCCCAAGCATCTCTGAGCA | -1.08 |
| AATCATGTAGCCAGATAAGAGCTATCAATG | -1.21 |
| TGAACACAGTTCGAACAGTTGGCCACCTTT | 1.09 |
| AGGGTAGGAGAAGCTGGAAGGACAGCATTC | -1.05 |
| TGAAGTTGGATAACCTTCTGCTGGATGCCC | 0.018 |
| CAGATTCCTGAGCCCAGATCCTCTAAATTC | -1.03 |
| CCTTTCCCCTAAAGGAGGCAAGGTCCAAAC | 3.47 |
| GGGTTGGTATTACAAAGCAATCTACTTTTC | 0.235 |
| TATGGCTGGGATATCAGGTATTGCCCAGTA | 0.611 |
| TATTGAGAAGAAACCTTTGCCCAACAGGAT | 1.12 |
| CTAAAAAAATAGTTTCAACTTAACCCCAGT | 3.05 |
| CCCTGCCTAAACAAGGCAGACTTGGATTTT | 0.122 |
| CTTTCGCCCTTTGTCCTATGACTCTCTCAA | 2.96 |
| TGAGCACACACTCACGGACCCTGTTACCAC | -1.03 |
| ACAGATGGTGACCAGACTACCTCTTTAGGC | -1.06 |
| GACCTACTTAGTCTCCAGCCCCCAGAGGTC | 4.4 |
| TTGCTGTCTCTTCCACCTGGAATGCACTTG | 1.5 |
| CCCCGCGTCCGTGCACCCTTCCTCTGCAGC | 1.33 |
| GGGAGGTGTTTATCTTGTGGTTGGAATGTT | 2.49 |
| CCAAGAACAAACAAAAACCAAAAAAACTTA | -1.16 |
| TGCTGTCTAGAAAGATTGCAGCAAGGAATT | -1.03 |
| AGCATCTAAACCTCTGCACACAGGATGTTT | -1.27 |

| Sequence | binding signal (log2 normalized intensity) |
| --- | --- |
| GAAGTGGGGGTGAGTCAGTCCCCAGCAATT | 1.33 |
| AGGGTGTGTAAAACAGGTGAAAGATAAGGG | -1.02 |
| CTTCATGGACTCCTCTTATCTTCAGGTATC | 1.14 |
| TCTGGTCATGGCCCTGAGGGAGGAGAGAGG | -1.11 |
| CGCCACAGCACCACCTGCTGGTCAGGAGAC | -1.14 |
| GATGGAGATCATCCTGCAGTTCCTGATCTT | -0.826 |
| TAAGAAAATGAAAACACAGCTCACCACCTA | -1.39 |
| CTATTAGTGGTTAAGTTTTCGAGGAGTCAA | 1.49 |
| AAAGGCAGGCAGTGGAGGGCTCCCTTTAGT | -1.08 |
| CAGATAATTCTTTGCTGTGGTAGGCTGTCC | 2.29 |
| CAGAGAAAGAGAGAGTTAGTTCTGCAAACA | -1.14 |
| GCTGCAAAATTTGAACAAAAAAAGAAGAGC | -1.07 |
| TGGATTGTGTTGCACTGTTTGCATAAAGTT | 1.7 |
| AGTCCTGACCTTGGACTCTGCCCTTGGCCT | 5.81 |
| TGTTACTTATAAATAATCTCAACCATACAA | -0.991 |
| TGTGCACACTTAGAAAATGCCCTCAATCAA | 1.54 |
| CAAGGGTCAATCCTCTCTTTGGAATGTGCA | 2.3 |
| CCTAACCACCTGACCACAACACACAAGAAC | -1.11 |
| TCTCACTGACTCACGGCAGCTTGTACCCTT | 2.43 |
| TGATAGCCATCTGGTGGACTTTGCTCTGCT | 7.44 |

Reference: paper PMC10726135
